Data reported in PubChem BioAssay AID504332 (National Center for Advancing Translational Sciences (NCATS), 2011).
Several values for one entry are separate records, joined by “and”; a condition that tells them apart may be missing. Equal values may be shown once. Among all 350,000 compounds or so, about 31,000 (8.9%) were called active. The inconclusive results got no clear call from the source; some entries with a clear call stand among them for comparison. Calls come from the whole dose curve; as a rule, active = well fitted inhibition curve with a large enough effect; inconclusive = small, poorly fitted or top-dose-only effect; inactive = no such curve, though single readings can be large or run the other way. Potencies beside an inconclusive call are fits to weak or partial responses and may not hold up. Some structures have more than one record in an assay (separate samples or runs), and their calls can disagree.

molecular target: Histone-lysine N-methyltransferase EHMT2 (Homo sapiens) (UniProt Q96KQ7); test: qHTS Assay for Inhibitors of Histone Lysine Methyltransferase G9a; settings: G9a H3K9 monomethylation, AlphaScreen, 2 h; activity, negative = inhibition: at 59 µM (top of the series) unless noted; note: nearly all actives have a fitted effect of over 75% in size
Chain of UniProt Q96KQ7 (Q96KQ7 whole entry, looked up): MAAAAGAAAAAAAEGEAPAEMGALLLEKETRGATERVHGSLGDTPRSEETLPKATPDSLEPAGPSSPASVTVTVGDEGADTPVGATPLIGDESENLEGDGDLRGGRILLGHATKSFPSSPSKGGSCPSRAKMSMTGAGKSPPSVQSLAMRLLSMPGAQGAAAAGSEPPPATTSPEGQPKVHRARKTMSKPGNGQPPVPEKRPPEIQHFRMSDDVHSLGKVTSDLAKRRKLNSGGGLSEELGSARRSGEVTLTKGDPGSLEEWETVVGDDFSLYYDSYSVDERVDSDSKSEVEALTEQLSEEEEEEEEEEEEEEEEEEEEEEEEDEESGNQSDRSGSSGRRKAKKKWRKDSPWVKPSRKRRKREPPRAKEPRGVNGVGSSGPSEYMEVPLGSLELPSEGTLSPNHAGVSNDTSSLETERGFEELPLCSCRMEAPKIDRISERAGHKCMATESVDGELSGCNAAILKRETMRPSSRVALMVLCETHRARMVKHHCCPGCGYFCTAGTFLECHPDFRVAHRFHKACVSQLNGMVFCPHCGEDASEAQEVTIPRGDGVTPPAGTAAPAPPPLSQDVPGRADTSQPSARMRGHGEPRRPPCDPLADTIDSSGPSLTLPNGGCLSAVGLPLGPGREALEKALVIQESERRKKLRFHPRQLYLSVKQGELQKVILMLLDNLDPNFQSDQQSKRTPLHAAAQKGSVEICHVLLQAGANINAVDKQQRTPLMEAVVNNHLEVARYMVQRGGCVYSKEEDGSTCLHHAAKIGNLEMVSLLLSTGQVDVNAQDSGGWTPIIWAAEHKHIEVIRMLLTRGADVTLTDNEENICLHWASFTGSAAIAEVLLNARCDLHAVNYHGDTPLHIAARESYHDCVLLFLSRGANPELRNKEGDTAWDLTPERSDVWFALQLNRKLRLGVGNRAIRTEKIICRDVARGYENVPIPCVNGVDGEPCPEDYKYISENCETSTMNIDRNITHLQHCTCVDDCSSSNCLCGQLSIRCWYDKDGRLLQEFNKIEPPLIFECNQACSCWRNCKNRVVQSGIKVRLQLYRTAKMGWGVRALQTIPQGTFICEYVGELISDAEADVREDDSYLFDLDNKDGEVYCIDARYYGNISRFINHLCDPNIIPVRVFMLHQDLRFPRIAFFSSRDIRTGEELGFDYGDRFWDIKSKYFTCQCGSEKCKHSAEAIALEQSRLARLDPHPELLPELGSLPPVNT
How it was run: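 Compounds were preincubated with 20 nM G9a for 15 min, after which biotinylated H3K9 peptide (500 nM) and SAM (20 uM) started a 2 h room-temperature reaction. Monomethylated product was quantified by antibody-based AlphaScreen chemiluminescence.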
% is set by controls: 0 for no effect and ±100 for the full control effect; potency is the fitted concentration of half-maximal effect; tags give direction and shape of the fitted curve.

SMILES | Potency | activity, negative = inhibition
CN(C)C(=O)Oc1ccc(-c2cn3cc(C(F)(F)F)ccc3n2)cc1 | inconclusive: 89.1 µM [inhibitor, partial curve, poor fit] | 
Cc1cccc(NC(=O)c2ccc(F)c(S(=O)(=O)N3CCN(c4ccc(F)cc4)CC3)c2)c1 | inconclusive: 35.5 µM [inhibitor, single point] | 
CN1CCN(c2ncc3ncc(=O)n(C)c3n2)CC1 |  | inactive: -3.1% [at 0.501 µM]
N#Cc1cc([N+](=O)[O-])ccc1NC(=O)c1cccn(Cc2cccc(F)c2)c1=O | inactive | 
CC(C)(O)[C@H]1O[C@H]2CC[C@@]3(C)[C@@](O)(CC[C@H]4Cc5c([nH]c6ccccc56)[C@@]43C)C2=CC1=O | active: 31.6 µM | 
CC(C)C(=O)NC(Oc1ccccc1Cl)C(Cl)(Cl)Cl (stereo not given) | inactive | 
CCN1c2nc3c(C)cccn3c(=O)c2CC2(C(=O)N(C)C(=O)N(C)C2=O)C1C (stereo not given) |  | inactive: 7.48% [at 12.7 µM]
O=CC1=C(N2CCOCC2)/C(=C\c2ccccc2)CC1 | active: 39.8 µM | 
COc1ccc(C2NCc3ccccc3-n3cccc32)cc1 (stereo not given) | active: 70.8 µM | 
CC(Oc1cc2oc(=O)c3c(c2cc1Cl)CCCC3)C(=O)NCc1ccccn1 (stereo not given) | inconclusive: 89.1 µM [inhibitor, partial curve, poor fit] | 
CCOC(=O)C1(c2ccccc2)CCN(CCC(C#N)(c2ccccc2)c2ccccc2)CC1 | inconclusive: 0.708 µM [inhibitor, full curve, poor fit] | 
Cn1cccc1/C=C1\C(=O)NC(=O)N(Cc2ccco2)C1=O | inconclusive: 31.6 µM [inhibitor, single point] | 
CCN(CC)C(=O)N[C@H]1C=C2c3cccc4[nH]cc(c34)C[C@@H]2N(C)C1 | inconclusive: 5.01 µM [inhibitor, partial curve, poor fit] | 
CN1C(=O)C(C2c3ccccc3C(=O)N2Cc2ccccc2)C(=O)N(C)C1=O (stereo not given) | inconclusive: 0.794 µM [inhibitor, full curve, poor fit] | 
Cc1ccc(Cn2c(SCc3ccc(C(=O)NC4CCCC4)cc3)nc3ccncc32)cc1 | inconclusive: 28.2 µM [inhibitor, partial curve, poor fit] | 
CCCCn1c(O)c(/C=N/N2CCCCC2c2cccnc2)c(=O)[nH]c1=S (stereo not given) | active: 8.91 µM | 
CCn1c(C)c(C(=O)O)c2cc(OC)ccc21 |  | inactive: -5.45% [at 12.7 µM]
Cc1sc2ccccc2c1CC1=NCCN1 | active: 3.16 µM and active: 11.2 µM | 
CC(=O)[C@H]1CC[C@H]2[C@@H]3CC[C@H]4C[C@](C)(O)CC[C@]4(C)[C@H]3CC[C@]12C | active: 7.94 µM | inactive: 2.47% [at 12.7 µM]
